Test results taken from article PMC6336347.
Results are given in words; binding and its absence hold for the method and conditions named. Some binding calls cover weakened binding; strength is not graded here.

T1: Narya (CG12200) (Drosophila melanogaster) (UniProt Q9VWI4)
T1 sequence: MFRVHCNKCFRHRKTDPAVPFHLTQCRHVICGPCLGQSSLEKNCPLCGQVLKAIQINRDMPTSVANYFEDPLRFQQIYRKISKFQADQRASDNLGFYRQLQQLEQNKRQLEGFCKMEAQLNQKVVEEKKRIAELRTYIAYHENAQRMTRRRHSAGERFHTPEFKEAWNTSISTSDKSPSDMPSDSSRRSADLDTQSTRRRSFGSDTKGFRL

T2: Nenya (CG31053) (Drosophila melanogaster) (UniProt Q8IMM9)
T2 sequence: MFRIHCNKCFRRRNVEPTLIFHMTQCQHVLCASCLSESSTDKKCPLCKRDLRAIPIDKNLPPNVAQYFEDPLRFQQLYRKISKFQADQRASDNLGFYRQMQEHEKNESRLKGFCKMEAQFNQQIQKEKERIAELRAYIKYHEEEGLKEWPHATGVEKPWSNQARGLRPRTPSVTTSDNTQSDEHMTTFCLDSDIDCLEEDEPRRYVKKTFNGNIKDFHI

T3: Vilya (Drosophila melanogaster) (UniProt O76908)
T3 sequence: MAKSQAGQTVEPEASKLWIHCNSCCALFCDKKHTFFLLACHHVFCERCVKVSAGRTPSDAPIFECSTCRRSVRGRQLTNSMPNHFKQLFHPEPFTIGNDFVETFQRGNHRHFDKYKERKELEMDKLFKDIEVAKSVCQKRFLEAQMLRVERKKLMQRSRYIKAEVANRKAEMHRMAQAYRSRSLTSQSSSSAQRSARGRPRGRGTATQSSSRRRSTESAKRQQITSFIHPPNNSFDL

T4: MEI-P22 (Drosophila) (UniProt Q9VS36)
T4 sequence: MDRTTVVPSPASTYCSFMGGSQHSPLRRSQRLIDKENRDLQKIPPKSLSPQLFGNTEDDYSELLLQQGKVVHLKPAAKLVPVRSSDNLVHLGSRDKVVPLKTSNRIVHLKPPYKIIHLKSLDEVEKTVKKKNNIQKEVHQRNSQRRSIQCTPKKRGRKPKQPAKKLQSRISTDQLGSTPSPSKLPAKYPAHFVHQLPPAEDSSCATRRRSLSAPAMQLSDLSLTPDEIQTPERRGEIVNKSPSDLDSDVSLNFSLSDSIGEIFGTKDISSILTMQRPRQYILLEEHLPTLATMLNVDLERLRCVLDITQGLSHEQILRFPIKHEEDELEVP


Assays:
Assay in all cases: two-hybrid; Matchmaker Gold Yeast Two-Hybrid System (Clontech), AH109 used in place of Y2Hgold, mated with Y187; pGBKT7 bait and pGADT7 prey vectors; six twofold dilutions of equal starting amounts plated on selection plates
[1] = molecular target: T1, Narya (CG12200) (Drosophila melanogaster)
[2] = molecular target: T2, Nenya (CG31053) (Drosophila melanogaster)
[3] = molecular target: T3, Vilya (Drosophila melanogaster)
[4] = molecular target: T4, MEI-P22 (Drosophila)

Row | binding [1] | binding [2] | binding [3] | binding [4] | Binder
1 | binds | binds | binds | – | Vilya (protein, UniProt O76908 1-237) MAKSQAGQTVEPEASKLWIHCNSCCALFCDKKHTFFLLACHHVFCERCVKVSAGRTPSDAPIFECSTCRRSVRGRQLTNSMPNHFKQLFHPEPFTIGNDFVETFQRGNHRHFDKYKERKELEMDKLFKDIEVAKSVCQKRFLEAQMLRVERKKLMQRSRYIKAEVANRKAEMHRMAQAYRSRSLTSQSSSSAQRSARGRPRGRGTATQSSSRRRSTESAKRQQITSFIHPPNNSFDL
2 | binds | binds | binds | no binding | Narya (CG12200) (protein, UniProt Q9VWI4 1-211) MFRVHCNKCFRHRKTDPAVPFHLTQCRHVICGPCLGQSSLEKNCPLCGQVLKAIQINRDMPTSVANYFEDPLRFQQIYRKISKFQADQRASDNLGFYRQLQQLEQNKRQLEGFCKMEAQLNQKVVEEKKRIAELRTYIAYHENAQRMTRRRHSAGERFHTPEFKEAWNTSISTSDKSPSDMPSDSSRRSADLDTQSTRRRSFGSDTKGFRL
3 | binds | binds | binds | no binding | Nenya (CG31053) (protein, UniProt Q8IMM9 1-219) MFRIHCNKCFRRRNVEPTLIFHMTQCQHVLCASCLSESSTDKKCPLCKRDLRAIPIDKNLPPNVAQYFEDPLRFQQLYRKISKFQADQRASDNLGFYRQMQEHEKNESRLKGFCKMEAQFNQQIQKEKERIAELRAYIKYHEEEGLKEWPHATGVEKPWSNQARGLRPRTPSVTTSDNTQSDEHMTTFCLDSDIDCLEEDEPRRYVKKTFNGNIKDFHI
